Values marked as one replicate rest on one cluster of the flow cell; about a third of the high ones do not repeat.
Tested on: ATP
Assay: switch fluorescence ratio, 500 uM ATP over buffer (Cy3 cluster intensity, sum of 5 cycles each) (fold (ratio)); higher = stronger signal-on switching upon ATP binding; sequences stand for … in TCGTCGGCAGCGTCAGATGTGTATAAGAGACAGTTTTTTTTTTTTTTTTTTTTTTTTT…TC
Conditions: aptamer strand: ATP DNA aptamer (quencher-CACCTGGGGGAGTATTGCGGAGGAAGG + anchor), 100 nM annealed; ATP concentration: 500 uM; one replicate
How it was run: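 Per cluster, summed Cy3 intensity from the target cycles was divided by that from the buffer cycles to give the fluorescence ratio, then averaged per switch-domain sequence. Clusters outside 100-1000 RFU were excluded. The Cy3-labelled switching-strand clusters, on a modified Illumina MiSeq flow-cell, were annealed to 100 nM quencher-labelled ATP aptamer and imaged in selection buffer, then after 15 min with 500 uM ATP at 22 °C, for five cycles with NaOH stripping and re-annealing between them.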
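Also: ATP exposure 15 min at 22 °C before imaging.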

| Sequence | switch fluorescence ratio |
| --- | --- |
| AGACGACTCC | 1.26 |
| TTACCAGGAG | 1.16 |
| TTATCATTTT | 0.957 |
| TAGATCAACT | 0.975 |
| CGGAAATTAA | 0.963 |
| ATGGTAGGCA | 1.01 |
| TTGGGGCTA | 1.02 |
| TTTATCTATG | 0.992 |
| AGGGAAAGAC | 1.1 |
| AAAACGGGT | 1.03 |
| CGTTGGGTT | 0.984 |
| CGAATAGGAG | 0.945 |
| ATCTTTGCGG | 1.02 |
| GTGATCCGA | 0.964 |
| TGGTCTACTC | 1 |
| CCCCAGTGTA | 4.06 |
| ATATCCGGGG | 1.01 |
| GAGTCCTGAG | 1.04 |
| CGGCCCAGGT | 4.74 |
| ACAAGCTGGA | 1.07 |
| ATATAAAAT | 1.28 |
| AATACCTAC | 1.34 |
| TTTTGAAAAT | 0.983 |
| AAGGTGGCC | 0.967 |
| ATGCGCGGGG | 1.01 |
| TGAATCCACG | 1.04 |

| Sequence | switch fluorescence ratio |
| --- | --- |
| CCTAGGGATG | 0.978 |
| ACGAGTAGTT | 1.01 |
| ATTCTCCTGC | 1.07 |
| TTCCTGTAGT | 0.993 |
| GCAGGGAACG | 1.08 |
| ATCCCGCCAA | 3.35 |
| AGACAGATAT | 0.964 |
| TACGAGTT | 0.996 |
| GGTAACTACG | 1.09 |
| ATTACACCTG | 1.06 |
| GGCGGAATAG | 1.89 |
| TGGGGCGGTC | 1.06 |
| ACAAACGTGA | 1.38 |
| ATATCCTGGT | 0.971 |
| CATAACTTAG | 1.06 |
| ATATCTGATG | 0.96 |
| TCTCCAACCC | 1.14 |
| GATTTATGCT | 1 |
| TCACTGAAAC | 1.01 |
| GGGGAATAG | 1.02 |
| CGTTCTTTAT | 1.03 |
| TTCCGCTCGA | 2.01 |
| TCCCGGCCCC | 1.15 |
| AAATTAGATA | 0.987 |
| GTCGCTCTTT | 0.99 |
| CGCGGACTTT | 1.1 |

| Sequence | switch fluorescence ratio |
| --- | --- |
| CAACCGGACT | 1.19 |
| TGGTGTGACC | 1.04 |
| GCCAGGTGTT | 3.53 |
| TCTGGGAGCA | 1.13 |
| GGCACTCATG | 1.01 |
| AGCGACGCGT | 0.982 |
| AGCGGGGGCG | 0.98 |
| CTGAGGGAA | 1.05 |
| GAATATTGAC | 1.05 |
| GCACGACCTT | 1.23 |
| TAAAGTGCTC | 0.965 |
| AAGTTGGAGC | 1.06 |
| CACGTAGGCG | 1.04 |
| AAATGGGGG | 0.965 |
| TGCCAAGAGG | 1 |
| GGCCCAGTCC | 1.02 |
| CTTGGGGTCG | 1.01 |
| TGATTCGACT | 0.994 |
| GGCCGCCAGC | 1.03 |
| CTCGACTTGG | 1.01 |
| TATGCTCTAC | 1.15 |
| CCTGAGGCGT | 1.03 |
| AAATAAGGTA | 0.999 |
| CATGGCGTCC | 0.956 |
| AGTTATGGC | 1.02 |
| CTAAAACGTA | 1.06 |

| Sequence | switch fluorescence ratio |
| --- | --- |
| ATACTACGCC | 1.42 |
| CTTGCATTGG | 1.08 |
| TGCAGCCGCG | 1.03 |
| GAGCCTTCA | 1.32 |
| GAACCGTTTG | 1.04 |
| TGGGGTAGTA | 0.902 |
| TACCTGGGAT | 1.03 |
| TCTACTTTTC | 1.05 |
| TAAAAGCAGT | 0.976 |
| GCCTTACGGG | 1.02 |
| ACCGTGGAAA | 0.969 |
| ACCTTCCGGA | 1.69 |
| ACAGGGAACT | 1.04 |
| GCCTGTTATT | 1.01 |
| ATAAGATCGG | 0.954 |
| CGGAGAAGT | 1.02 |
| TTTAACCCGC | 1.08 |
| TAGGGAAGGA | 0.954 |
| TTGAGGTCAA | 1.76 |
| AGCATGTTGG | 0.97 |
| GATGAATG | 1.01 |
| CGTGACACAA | 1.04 |
| GAGCATCCCG | 1.04 |
| CAGAATGTAC | 1.04 |
| GATCCCGA | 0.964 |
| AGGTCACAGA | 1.07 |

| Sequence | switch fluorescence ratio |
| --- | --- |
| GTTTAGCGGG | 0.979 |
| TCATCCTCGC | 1.58 |
| TCCTGGTTG | 1.01 |
| GTGACTTCGC | 1.29 |
| AGCGGCCTAG | 0.956 |
| GGGCCCAATT | 1.02 |
| GCTTATAC | 2.57 |
| GTGCTAAGT | 0.951 |
| GTAATGAT | 0.969 |
| CACTTTTCGA | 0.982 |
| ATCCTTTTAA | 0.969 |
| CACATCACTG | 1.48 |
| CTTTGCCTCT | 0.954 |
| AGACCGTGAA | 1.03 |
| CTTCAGGCGA | 1.23 |
| AACCATCGGA | 0.999 |
| ACGAAATTTT | 1.02 |
| CATGAAACTA | 1.03 |
| GCTAATCTG | 0.962 |
| TGGAGCCTT | 1.02 |
| TGAACTCTTT | 0.979 |
| CACCGTGCCT | 1.1 |
| TTTTAGGACT | 0.998 |
| CGTAAGACTT | 1.13 |
| AGAGAGTCTG | 1.14 |
| TCATAGCCGA | 1.04 |

| Sequence | switch fluorescence ratio |
| --- | --- |
| AGGCAGGTAG | 1.01 |
| GCCAAAGGGG | 1.05 |
| GCCGTTTTCA | 1.02 |
| CCACTTGTTT | 1.03 |
| ACGCCGCACT | 2.02 |
| GGTCGATGTC | 1.14 |
| GCATTCCAGA | 1.01 |
| TACGGACAGA | 1.21 |
| AGGTCCGATA | 1 |
| GACGGGTGTG | 0.988 |
| GACAGGGCTA | 1.08 |
| GATTGTCTCA | 1 |
| TTACCTGCGG | 1.01 |
| ATGGAGTCGC | 1.02 |
| CAGCGTTCTC | 1.16 |
| GTTGCGGACT | 0.959 |
| GCTTTCGACG | 1.07 |
| GAGTCAGATG | 0.965 |
| CTAGGACAGG | 1.04 |
| TATTCGGGTC | 1.05 |
| CGTGTCATAC | 1.57 |
| CGGGCATGAG | 0.963 |
| CTCTTCACCT | 1.13 |
| GACTCAAATA | 1.05 |

— the supplement of paper PMC10126150
